Measurements published in the supplement of paper PMC10338343.
± gives the standard deviation. Whole data set: some 3,700 sequences, median “pre-steady-state target cleavage rate” near 0.02, cut for the highest 2% near 0.23. This is a selection; strong and weak results do not stand in their true shares.

Tested on: MILI (PIWIL2) piRISC loaded with Kctd7 piRNA (26 nt)
Experiment: pre-steady-state target cleavage rate (min^-1); MIWI and MILI are mouse PIWI proteins and EfPiwi is from a freshwater sponge; tags in brackets are library labels; higher = faster piRNA-guided slicing of the target
Details: guide: Kctd7 piRNA 5'p-UGUUAAUCUCUCAGAGAAGGUGACAG; auxiliary factor: 500 nM mouse GTSF1
Outline: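 For Cleave-'n-Seq, a transcribed, DNA-blocked target RNA library […] met 1 nM active affinity-purified piRISC with one synthetic guide at 33 °C for 0–8 or 0–960 min in HEPES–potassium acetate buffer, with or without 500 nM GTSF1 partner protein. Uncleaved targets were sequenced and normalised to depth and weakly complementary targets, with three trials pooled and k3 capped at 0.0001 min^-1. A burst-and-steady-state fit supplied the pre-steady-state cleavage rate.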
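Further: 1 nM active piRISC with 0.1 nM target library at 33 °C single turnover.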

Sequence | pre-steady-state target cleavage rate
UAGUCUCUCACCUUCUCUGAGAGUUUAACA | 0.183 ± 0.024
UAGUCUGUCAUCCUUCUCUGAGAGAUUAACA | 0.0662 ± 0.01
UAGUGACAGUCCUUCUCUGAGAGAUCUAACA | 0.0222 ± 0.0057
UAGUGACUCACGUUCUCUGAGAGAUUAACA | 0.126 ± 0.0062
UAGUGAGUCAGCUUCUCUGAGAGAUUAAGA | 0.0631 ± 0.017
UAGUGACUCACCUUCUCUGUGAGAUAAACA | 0.0187 ± 0.0053
UAGUGACAGACCAUCUCUGAGACAUUAACA | 0.00754 ± 0.0049
UAGUGAGUCACCUUCUACUGAGAGAUUAACA | 0.0848 ± 0.022
UAGUGACACACCUUCACAGAGAGAUUAACA | 0.0278 ± 0.0089
UAGUGACUCUGCUUCUCUGAGAGAUUAAGA | 0.00863 ± 0.0028
UAGUGAGUCACCUUCUCUGAGAGGAUUAACA | 0.129 ± 0.015
UAGUGACAGUGGAAGAGUGACAGAUUAACA | < 0.0001
UAGUGAGUCACCGUUCUCUGAGAGAUUAACA | 0.185 ± 0.02
UAGUGUGUCACCUACUCUGAGAGAUAAACA | 0.128 ± 0.029
UAGUGACUCACCUUCUCUGAGAGAUUAACU [g2:g23:cont:t1U] | 0.178 ± 0.018
UAGUGAGUCACCUUCUCUGAGAGCAUUAACA | 0.149 ± 0.014
UAGUGACAGACCUUCUGUGAGAGAAUAACA | 0.0592 ± 0.018
UAGUCUGUCACCUUGUCUGAGACAUUAACA | 0.0544 ± 0.01
UAGUCUGUCACCUUCAGUGAGAGAUUAACA | 0.0379 ± 0.0068
UAGUGACUCACCUUCUCUGAGAGAUUAACG [g2:g23:cont:t1G] | 0.146 ± 0.012
UAGUCUGCCACCUUCUCUGAGAGAUUAACA | 0.205 ± 0.012
UAGUGACUCACCUUCUCUGAGAAAUUAACA | 0.113 ± 0.02
UAGUGACUCACCUAGUCUGAGAGAUUAUGA | 0.0127 ± 0.0062
UAGUGACUCACACUUCUCUGAGAGAUUAACA | 0.0432 ± 0.0076

Sequence | pre-steady-state target cleavage rate
UAGUGACAGACCUUCUCUGAGAGAUUACCA | 0.0531 ± 0.017
UAGUGACAGUGCUUCUCUGAGAGACUUAACA | 0.00395 ± 0.003
UAGUGACUGACCUUCUCUGAGAGAUUAAGA | 0.0471 ± 0.015
UAGUGUGUCACCUUCUCUCACAGAUUAACA | 0.0199 ± 0.009
UAGUGACACACCUUCUCUGAGAGAUUAAGA | 0.0905 ± 0.018
UAGUGACAGUGCUUCACUCAGAGAUUAACA | 0.00757 ± 0.0045
UAGUCUGUCCACCUUCUCUGAGAGAUUAACA | 0.15 ± 0.018
UAGUGUGUCACGUUCUCAGAGAGAUUAACA | 0.092 ± 0.0075
UAGUGACACACCUUCUGUGAGACAUUAACA | 0.0578 ± 0.012
UAGUGACUCACGUUCUCUGUGAGAUUAACA | 0.0244 ± 0.0029
UAGUGUGUCAGGAUCUCUGAGAGAUUAACA | 0.0599 ± 0.0091
UAGUGACAGUGCUUCACAGAGAGAUUAACA | 0.0054 ± 0.0031
UAGUGACACAGCUUCUCUGAGAGAUUAUGA | 0.006 ± 0.0035
UAGUGACAGACCUUCUCUGAGAGAUUACA | 0.0601 ± 0.014
UAGUGACAGACCUUCUUGAGAGAUUAACA | 0.00879 ± 0.0048
UAGUCACACACCUUCUCUGAGAGAUUAACA | 0.168 ± 0.011
UAGUGUGUCACGAUCUCUGAGAGAUUAUGA | 0.0104 ± 0.0046
UAGUGACACAGCUACUCUGAGAGAUUAACA | 0.038 ± 0.0055
UAGUGUGACACCUUCUCUGAGAGAUUAACA | 0.214 ± 0.017
UAGUGUGUGACCUUCUCUGAGACAUUAACA | 0.026 ± 0.0085
UAGUGACAGACCUUCUGUGAGAGAUUAUCA | 0.0073 ± 0.0047
UAGUGACUUCACCUUCUCUGAGAGAUUAACA | 0.199 ± 0.011
UAGUGACAGACUCUUCUCUGAGAGAUUAACA | 0.0442 ± 0.0067
UAGUGUGUCAGCUUGUCUGAGAGAUUAACA | 0.133 ± 0.011

Sequence | pre-steady-state target cleavage rate
UAGUGACACACUUUCUCUGAGAGAUUAACA | 0.13 ± 0.0093
UAGUGACACACCUUCUCUGAGAGAGUUAACA | 0.22 ± 0.028
UAGUGACAGUCCUUCAUCUGAGAGAUUAACA | 0.00341 ± 0.0033
UAGUGACAGUGCUUCUCUGAGGGAUUAACA | 0.00586 ± 0.0022
UAGUGACACACCUUGUCUGAGAGUUUAACA | 0.0219 ± 0.012
UAGUGACUCACCUUGAGUGAGAGAUUAACA | 0.0123 ± 0.0045
UAGUGUGUCACGAUCUCUGAGAGAUUAAGA | 0.0396 ± 0.009
UAGUGAGUGACCUUCUCAGAGAGAUUAACA | 0.121 ± 0.018
UAGUGUGUCACCUUCUGAGAGAGAUUUUGA | 0.01 ± 0.0057
UAGUGUGUGACCUUCUGUGAGAGAUUAACA | 0.139 ± 0.021
UAGUGACAGUCCUACACUGAGAGAUUAACA | 0.0107 ± 0.0031
UAGUGACACUCCUUCUCUGAGAGAUUAUGA | 0.00572 ± 0.0042
UAGUGACUCACCAUCUCUCAGAGAUUAACA | 0.0257 ± 0.0053
UAGUGACACUCCUUCUGUGAGAGAUUAACA | 0.0854 ± 0.012
UAGUGUGUGACCUUCUCUGAGAGAUUAAGA | 0.0865 ± 0.018
UAGUGAGUCACCUUCUCUGAGAUGAUUAACA | 0.153 ± 0.022
UAGUGACACAGGAUCUCUGAGAGAUUAACA | 0.0138 ± 0.002
UAGUGACUCAGCUUCUCUGAGAGAUUAAGA | 0.0201 ± 0.0048
UAGUGACACACCUACUCUGAGAGAUAAACA | 0.0356 ± 0.0096
UAGUGACAGUCCUUCUCUGAGAGAGUAACA | 0.0137 ± 0.0047
UAGUCUGUGACCUACUCUGAGAGAUUAACA | 0.132 ± 0.0063
UAGUGUGUCACCUUCUCUGAGAGUAAUUGA | 0.0693 ± 0.027
UAGUGACAGUCCUUGAGUGAGAGAUUAUGA | < 0.0001
